# Experimental data: the supplement of paper PMC8728848
# The other results are listed elsewhere or left out.
# Key:
# Assay in all cases: glycan array binding signal (z-score within array); higher = stronger binding
# Conditions in all cases: glycan notation: IUPAC condensed, linker removed
# [1] = target: Gal6S(b1-4)Glc
# In short: (§1)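 The binding signal is a Z-score computed within each array and averaged over linkers. Arrays of the same protein sequence at different concentrations or buffers were also averaged together. Data originate from 3228 arrays in the Consortium for Functional Glycomics database, kept only where the protein sequence was available.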
# [2] = target: Gal6S(b1-4)Glc6S
# In short: as §1
# [3] = target: Gal6S(b1-4)GlcNAc
# In short: as §1
# [4] = target: Gal6S(b1-4)GlcNAc6S
# In short: as §1
# [5] = target: GalNAc(a1-3)Gal
# In short: as §1
# [6] = target: GalNAc(a1-3)GalNAc
# In short: as §1
# [7] = target: GalNAc(a1-3)GalNAc(b1-3)Gal(a1-4)Gal(b1-4)Glc
# In short: as §1
# [8] = target: GalNAc(a1-3)GalNAc(b1-3)Gal(a1-4)Gal(b1-4)GlcNAc
# In short: as §1
# [9] = target: GalNAc(b1-3)Gal
# In short: as §1
# [10] = target: GalNAc(b1-3)Gal(a1-4)Gal(b1-4)GlcNAc
# In short: as §1
# [11] = target: GalNAc(b1-3)Gal(a1-4)Gal(b1-4)GlcNAc(b1-3)Gal(b1-4)Glc
# In short: as §1
# [12] = target: GalNAc(b1-3)Gal(a1-6)Gal(b1-4)Glc
# In short: as §1
# [13] = target: GalNAc(b1-3)GalNAc
# In short: as §1
# [14] = target: GalNAc(b1-3)GlcNAc
# In short: as §1
# [15] = target: GalNAc(b1-4)Gal(b1-4)Glc
# In short: as §1
# [16] = target: GalNAc(b1-4)GlcNAc
# In short: as §1
# [17] = target: GalNAc(b1-4)GlcNAc(b1-2)Man
# In short: as §1
# [18] = target: GalNAc(b1-4)GlcNAc(b1-2)Man(a1-3)[GalNAc(b1-4)GlcNAc(b1-2)Man(a1-6)]Man(b1-4)GlcNAc(b1-4)GlcNAc
# In short: as §1
# [19] = target: GalNAc(b1-4)GlcNAc(b1-3)GalNAc(b1-4)GlcNAc
# In short: as §1
# [20] = target: GalNAc(b1-4)GlcNAc6S
# In short: as §1
# [21] = target: GalNAc(b1-6)GalNAc
# In short: as §1
# [22] = target: GalNAc3S(b1-4)GlcNAc
# In short: as §1
# [23] = target: GalNAc3S(b1-4)GlcNAc3S
# In short: as §1
# [24] = target: GalNAc3S(b1-4)[Fuc(a1-3)]GlcNAc
# In short: as §1
# [25] = target: GalNAc4S6S(b1-4)GlcNAc
# In short: as §1
# [26] = target: GalNAc6S(b1-4)GlcNAc
# In short: as §1
# [27] = target: Glc(a1-4)Glc
# In short: as §1
# [28] = target: Glc(a1-4)Glc(a1-4)Glc(a1-4)Glc
# In short: as §1
# [29] = target: Glc(a1-6)Glc(a1-6)Glc
# In short: as §1
# [30] = target: Glc(a1-6)Glc(a1-6)Glc(a1-6)Glc
# In short: as §1
# [31] = target: Glc(b1-4)Glc
# In short: as §1
# [32] = target: Glc(b1-6)Glc
# In short: as §1
# [33] = target: GlcA(b1-3)Gal
# In short: as §1
# [34] = target: GlcA(b1-3)GlcNAc
# In short: as §1
# [35] = target: GlcA(b1-6)Gal
# In short: as §1
# [36] = target: GlcA3S(b1-3)Gal(b1-4)GlcNAc(b1-2)Man
# In short: as §1
# [37] = target: GlcA3S(b1-3)Gal(b1-4)GlcNAc(b1-3)Gal(b1-4)Glc
# In short: as §1
binder,measurement,setting,value
DC-ASGPR-short (Homo sapiens) (protein) MTRTYENFQYLENKVKVQGFKNGPLPLQSLLQRLRSGPCHLLLSLGLGLLLLVIICVVGFQNSKFQRDLVTLRTDFSNFTSNTVAEIQALTSQGSSLEETIASLKAEVEGFKQERQAVHSEMLLRVQQLVQDLKKLTCQVATLNNNASTEGTCCPVNWVEHQDSCYWFSHSGMSWAEAEKYCQLKNAHLVVINSREEQNFVQKYLGSAYTWMGLSDPEGAWKWVDGTDYATGFQNWKPGQPDDWQGHGLGGGEDCAHFHPDGRWNDDVCQRPYHWVCEAGLGQTSQESH,glycan array binding signal (z-score),[1],-0.271
same,glycan array binding signal (z-score),[2],-0.268
same,glycan array binding signal (z-score),[3],-0.288
same,glycan array binding signal (z-score),[4],-0.279
same,glycan array binding signal (z-score),[5],2.02
same,glycan array binding signal (z-score),[6],0.823
same,glycan array binding signal (z-score),[7],0.695
same,glycan array binding signal (z-score),[8],1.42
same,glycan array binding signal (z-score),[9],0.55
same,glycan array binding signal (z-score),[10],6.36
same,glycan array binding signal (z-score),[11],1.75
same,glycan array binding signal (z-score),[12],1.25
same,glycan array binding signal (z-score),[13],1.45
same,glycan array binding signal (z-score),[14],2.85
same,glycan array binding signal (z-score),[15],-0.239
same,glycan array binding signal (z-score),[16],4.38
same,glycan array binding signal (z-score),[17],3.01
same,glycan array binding signal (z-score),[18],1.98
same,glycan array binding signal (z-score),[19],4.52
same,glycan array binding signal (z-score),[20],4.1
same,glycan array binding signal (z-score),[21],-0.274
same,glycan array binding signal (z-score),[22],-0.273
same,glycan array binding signal (z-score),[23],-0.272
same,glycan array binding signal (z-score),[24],-0.256
same,glycan array binding signal (z-score),[25],-0.269
same,glycan array binding signal (z-score),[26],2.27
same,glycan array binding signal (z-score),[27],-0.277
same,glycan array binding signal (z-score),[28],-0.27
same,glycan array binding signal (z-score),[29],-0.277
same,glycan array binding signal (z-score),[30],-0.255
same,glycan array binding signal (z-score),[31],-0.286
same,glycan array binding signal (z-score),[32],-0.285
same,glycan array binding signal (z-score),[33],-0.272
same,glycan array binding signal (z-score),[34],-0.28
same,glycan array binding signal (z-score),[35],-0.263
same,glycan array binding signal (z-score),[36],-0.279
same,glycan array binding signal (z-score),[37],-0.268
